# Out of some 94,000 compounds screened, about 6,200 (6.6%) were called active. Inconclusive means that the source gave no clear call. Such entries were picked first, then a sample of the others. The call rests on the fitted dose curve; in most records, active means well fitted inhibition curve with a large enough effect; inconclusive means small, poorly fitted or top-dose-only effect; inactive means flat fitted curve, though single readings scatter. Potencies beside an inconclusive call are fits to weak or partial responses and may not hold up.
# Test: Cytotoxic Profiling in HEK 293 Cell Line of Diverse Libraries Using Quantitative High-Throughput Screening; further: nearly all actives have a fitted effect of over 60% in size
# Details: HEK 293 viability, ATP luminescence (CellTiter-Glo), 48-72 h; activity change, negative = cytotoxicity: at 115 µM (top of the series) unless noted; series mostly up to 115 µM
# Method in brief: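 CellTiter-Glo luminescence (cellular ATP) was read after 48 or 72 hr of compound exposure at 37 degree Celsius. Cells were HEK 293 plated at 250 cells/well.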
# On the % scale 0 is the no-effect control and ±100 the full control effect; potency means the concentration at half of the fitted maximal effect; tags describe the fitted curve by direction and shape.
Compound,Potency,"activity change, negative = cytotoxicity",outcome
Cc1ccc(CN2CCC(CNc3nccc(-c4ccccn4)n3)CC2)o1,"inconclusive: 89.1 µM [inhibitor, single point]",–,–
Cn1cc(CNC(=O)c2coc(CN3CCN(C/C=C/c4ccccc4)CC3)n2)cn1,"inconclusive: 79.4 µM [inhibitor, partial curve]",–,–
CCOc1ccc(-c2cc3n(n2)CCCN(C(=O)CCS(=O)(=O)c2ccc4c(c2)CCN4C(C)=O)C3)cc1,–,inactive: -11.2%,–
O=C(NC1CC1)c1nc(-c2cccc(C(F)(F)F)c2)c2cnccn12,active: 79.4 µM,–,–
Cc1ccccc1-n1ncc(C(C)NC(=O)c2ccsc2)c1C (stereo not drawn),"inconclusive: 56.2 µM [inhibitor, partial curve, poor fit]",–,–
O=C(Nc1ccc(F)cc1)c1nc2sccn2c1-c1ccc(F)cc1,"inconclusive: 112 µM [inhibitor, partial curve, poor fit]",–,–
O=C(CC1CCCN(c2cn[nH]c(=O)c2)C1)N1CCCCC1 (stereo not drawn),–,inactive: 1.91%,–
Cc1noc(C)c1C(=O)N1Cc2ccccc2CC2(CCN(C)C2)C1 (stereo not drawn),active: 79.4 µM,–,–
CSc1ccc(-c2cccc(C(=O)NCC(=O)NCc3cccs3)c2)cc1,"inconclusive: 7.94 µM [inhibitor, full curve, poor fit]",–,–
COc1ccccc1-c1ccc2c(C(=O)NCc3cccs3)nn(C)c2n1,"inconclusive: 44.7 µM [inhibitor, partial curve, poor fit]",–,–
Fc1cnc(N2CCCC(OCc3cccnc3)C2)nc1N1CCOCC1 (stereo not drawn),"inconclusive: 50.1 µM [inhibitor, partial curve, poor fit]",–,–
COc1ccc(CC(=O)N2CCCC3(CNc4ncccc4[S+](=O)([O-])N3)C2)cc1 (stereo not drawn),–,–,inactive
CC1=NS(=O)(=O)N(C)C=C1C(=O)OCc1nc(-c2ccc(C)cc2)no1,"inconclusive: 20 µM [inhibitor, full curve]",–,–
CC(C)SCC(=O)N1CCCC(N2CCN(c3ccc(F)cc3)CC2)C1 (stereo not drawn),"inconclusive: 79.4 µM [inhibitor, single point]",–,–
COc1ccc2c(c1)OCC(C(=O)NCCS(=O)(=O)N1CCCC1)C2 (stereo not drawn),–,–,inactive
O=C(c1cccs1)N1CCc2[nH]nc(-c3cccc(F)c3)c2C1,active: 28.2 µM,–,–
Cc1ccc(C(=O)N2CCC(Cc3nc(-c4ccccc4)n[nH]3)CC2)cn1,–,inactive: -12.9%,–
Cc1cccc(OCCc2noc(C3CN(S(=O)(=O)c4ccccc4)C3)n2)c1,"inconclusive: 50.1 µM [inhibitor, partial curve, poor fit]",–,–
COc1ccc(CN2CCC3(C2)C(=O)Nc2ccccc23)cc1 (stereo not drawn),"inconclusive: 112 µM [inhibitor, single point]",–,–
Cc1ccc(C)c(OCC(=O)c2ccc3c(c2)N(CCCC(=O)NCC2CCCO2)C(=O)CO3)c1 (stereo not drawn),"inconclusive: 50.1 µM [inhibitor, partial curve, poor fit]",–,–
O=C(C1CCCN1C(=O)Nc1ccccc1)N1CCC(c2nc3ccncc3[nH]2)C1 (stereo not drawn),–,inactive: -4.51%,–

Compound,Potency,"activity change, negative = cytotoxicity",outcome
CN1c2cc(C(=O)NCc3ccccc3Br)ccc2C(=O)N2CCCC21 (stereo not drawn),"inconclusive: 50.1 µM [inhibitor, partial curve, poor fit]",–,–
CC(C)(C)c1ccc(-c2noc(-c3ncn4c3COC(c3ccc(F)cc3)C4)n2)cc1 (stereo not drawn),"inconclusive: 35.5 µM [inhibitor, full curve, poor fit]",–,–
CCOc1ccc(CC(=O)N2CCC[C@H]2c2nc(-c3ccccc3)no2)cc1,"inconclusive: 39.8 µM [inhibitor, full curve, poor fit]",–,–
COc1ccc2nc([C@H]3CCN(CC(C)C)C3)[nH]c2c1,active: 89.1 µM,–,–
CC(=O)c1cccc(NC(=O)O[C@@H]2CO[C@H]3[C@@H]2OC[C@@H]3Nc2nccc(-c3cccc(F)c3)n2)c1,active: 35.5 µM,–,–
Cc1noc2c(-c3cccnc3)cc(-c3cccs3)nc12,"inconclusive: 70.8 µM [inhibitor, partial curve, poor fit]",–,–
CNC(=O)[C@@H](Cc1ccccc1)N1CCC[C@H]1C(=O)NCCN(C)C,–,–,inactive [at 172 µM]
O=C(Nc1ccc(F)c(Cl)c1)C1CCN(C(=O)c2ncn3c2COC(c2ccccc2)C3)CC1 (stereo not drawn),–,inactive: 6.78%,–
Cc1ncc2n1C(=O)N(C1CCN([S+](=O)([O-])c3cccc(C(F)(F)F)c3)CC1)C2,"inconclusive: 44.7 µM [inhibitor, partial curve]",–,–
COCC1CN(C(C)=O)CC12CCN(C(=O)c1ccccc1OC)CC2 (stereo not drawn),–,inactive: 1.83%,–
CCN(Cc1ccccc1)C(=O)Cn1c(C)ccc(NS(=O)(=O)c2ccccc2)c1=O,"inconclusive: 10 µM [inhibitor, full curve, poor fit]",–,–
O=C(NCCc1cnc[nH]1)c1nc(-c2ccccc2)cc2[nH]ccc12,"inconclusive: 89.1 µM [inhibitor, partial curve]",–,–
CC(=O)Nc1cccc(C(=O)NC2CCCN(c3cc(-c4ccc(Cl)cc4)[nH]n3)C2)c1 (stereo not drawn),active: 44.7 µM,–,–
O=C(Nc1cccc(-c2nnc3n2CCCC3)c1)C1CCCCC1,–,inactive: -1.63%,–
COc1ccc(C2(C(=O)N3CCC[C@H]3c3nc(-c4ccccc4Cl)no3)CC2)cc1,"inconclusive: 50.1 µM [inhibitor, partial curve, poor fit]",–,–
COc1cc(NC(=O)Cn2ccn3nc(-c4ccc(F)cc4)c(CO)c3c2=O)cc(OC)c1OC,"inconclusive: 22.4 µM [inhibitor, full curve, poor fit]",–,–
COc1ccc(-c2noc(-c3cccn3CC(=O)Nc3cccc(C)c3)n2)cc1F,"inconclusive: 44.7 µM [inhibitor, partial curve, poor fit]",–,–
O=C(NCc1ccc(F)c(F)c1)c1cn2cc(-c3ccc(C(F)(F)F)cc3)sc2n1,active: 56.2 µM,–,–
CN(C)c1ncc2c(n1)C(C)(C(=O)NCc1ccc3c(c1)OCO3)CCC2 (stereo not drawn),"inconclusive: 100 µM [inhibitor, partial curve]",–,–
CCN1c2cc(C(=O)NCc3ccc(OC)c(OC)c3)ccc2C(=O)N2CCCCCC21 (stereo not drawn),active: 44.7 µM,–,–
CCCn1nc(C)cc1CN(C)C(=O)c1ccc2c(c1)C(O)CCCCCN2C (stereo not drawn),"inconclusive: 44.7 µM [inhibitor, partial curve, poor fit]",–,–

Compound,Potency,"activity change, negative = cytotoxicity",outcome
Cc1ccccc1-c1cnc2[nH]cc(CC(=O)NC3CC3)c2c1,"inconclusive: 100 µM [inhibitor, partial curve, poor fit]",–,–
CCc1ccc(S(=O)(=O)N2c3ccccc3CC2c2nnc(C3CCOCC3)o2)cc1 (stereo not drawn),"inconclusive: 50.1 µM [inhibitor, partial curve, poor fit]",–,–
CN1C(=O)C2(CCN(C(=O)c3ccccc3F)C2)c2ccccc21 (stereo not drawn),"inconclusive: 100 µM [inhibitor, partial curve, poor fit]",–,–
Cn1ncc2c(C(=O)N3CCN(Cc4ccccc4)CC3)cc(-c3ccccc3F)nc21,active: 39.8 µM,–,–
O=C(COc1ccccc1)N1CCCCCC1c1nc(-c2ccncc2)no1 (stereo not drawn),"inconclusive: 50.1 µM [inhibitor, partial curve, poor fit]",–,–
C[S+](=O)([O-])N1CC2(Cc3ccccc31)CN(C(=O)Cc1cccc(Cl)c1)C2,"inconclusive: 50.1 µM [inhibitor, partial curve, poor fit]",–,–
CNC(=O)C1(N2CCC[C@H]2C(=O)N2CCCCC2)COC1,–,inactive: 1.49% [at 172 µM],–
CC[C@H]1CN(S(=O)(=O)c2ccc(OC)cc2)CC[C@H]1CC(=O)NCCSC,"inconclusive: 89.1 µM [inhibitor, partial curve, poor fit]",–,–
COc1ncc(-c2cc3c(nc2OC)nc(CCc2ccccc2)n3C)cn1,"inconclusive: 100 µM [inhibitor, partial curve]",–,–
Cn1cc(CN2C[C@H](O)C[C@H]2c2nc(-c3cccc([N+](=O)[O-])c3)no2)c2ccccc21,"inconclusive: 100 µM [inhibitor, partial curve, poor fit]",–,–
Cc1cc(C)n(C2CN(Cc3cccc(OCC(O)CN4CCOCC4)c3)C2)n1 (stereo not drawn),–,inactive: 1.02%,–
O=C(c1ccccc1)N1CCC(C(=O)N2CCC(N3Cc4ccccc4C3=O)CC2)CC1,"inconclusive: 39.8 µM [inhibitor, partial curve]",–,–
CCC(C)NC(=O)c1cc(-c2ccc(F)cc2)nc2c1cnn2C (stereo not drawn),"inconclusive: 25.1 µM [inhibitor, full curve, poor fit]",–,–
CSc1cccc(NC(=O)C2CCN(C(=O)c3ncn4c3COC(c3ccc(F)cc3)C4)CC2)c1 (stereo not drawn),–,inactive: -28.5%,–
CN(Cc1cnn(-c2ccc(F)cc2)c1)C(=O)c1cn(Cc2cccc3ccccc23)nn1,"inconclusive: 50.1 µM [inhibitor, partial curve, poor fit]",–,–
COc1cccc(CN2C(=O)OC3(CCN(Cc4cccc(C)c4)CC3)C2(C)c2cccnc2)c1 (stereo not drawn),"inconclusive: 50.1 µM [inhibitor, partial curve, poor fit]",–,–
O=C1NC2(CN(Cc3ccc(C(F)(F)F)cc3)C2)Oc2ccccc21,"inconclusive: 56.2 µM [inhibitor, partial curve, poor fit]",–,–
Clc1ccccc1C1(c2ccnc(C3CCCC3)n2)CCNCC1,"inconclusive: 35.5 µM [inhibitor, full curve, poor fit]",–,–
Cc1ccc(C(=O)N2CCOc3ccc(CN4CCc5ccccc5C4)cc3C2)cn1,"inconclusive: 89.1 µM [inhibitor, single point]",–,–
COc1ccc(-c2cc(C(=O)NCc3ccnc(N)c3)c3c(c2)ncn3C)cc1,"inconclusive: 63.1 µM [inhibitor, full curve]",–,–
O=C(NC[C@H]1O[C@@H](CO)[C@@H](O)[C@H]1N1CCN(c2cccc(C(F)(F)F)c2)CC1)c1cccs1,"inconclusive: 89.1 µM [inhibitor, single point]",–,–

# — PubChem BioAssay AID1345083 (National Center for Advancing Translational Sciences (NCATS), 2018)
